# Test results reported in the supplement of paper PMC8728848.
# Some of the results follow.
# B1: ACA (Amaranthus caudatus) (protein)
# chain: MAGLPVIMCLKSNNNQKYLRYQSDNIQQYGLLQFSADKILDPLAQFEVEPSKTYDGLVHIKSRYTNKYLVRWSPNHYWITASANEPDENKSNWACTLFKPLYVEEGNMKKVRLLHVQLGHYTQNYTVGGSFVSYLFAESSQIDTGSKDVFHVIDWKSIFQFPKRYVTFKGNNGKYLGVITINQLPCLQFGYDNLNDPKVAHEMFVTSNGTICIKSTYMNKFWRLSTDDWILVDGNDPRETNEAAALFRSDVHDFNVISLLNMQKTWFIKRFTSGKPGFINCMNAATQNVDETAILEIIELGSNN
# Key:
# Assay in all cases: glycan array binding signal (z-score within array); higher = stronger binding
# Conditions in all cases: glycan notation: IUPAC condensed, linker removed
# [1] = biological target: Gal(b1-4)GlcNAc(b1-2)[Gal(b1-4)GlcNAc(b1-4)]Man(a1-3)[Gal(b1-4)GlcNAc(b1-2)Man(a1-6)]Man(b1-4)GlcNAc(b1-4)GlcNAc
# Outline: (§1)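 Arrays were curated from the Consortium for Functional Glycomics database, 3228 in total, and kept only where the protein sequence was available. Binding is expressed as a within-array Z-score. This score was averaged across arrays of the same protein sequence at different concentrations or buffers and across linkers, and negative values can be read as non-binding.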
# [2] = biological target: Gal(b1-4)GlcNAc(b1-2)[Gal(b1-4)GlcNAc(b1-4)]Man(a1-3)[Gal(b1-4)GlcNAc(b1-2)[Gal(b1-4)GlcNAc(b1-6)]Man(a1-6)]Man(b1-4)GlcNAc(b1-4)GlcNAc
# Outline: as §1
# [3] = biological target: Gal(b1-4)GlcNAc(b1-2)[Gal(b1-4)GlcNAc(b1-4)]Man(a1-3)[GlcNAc(b1-4)][Gal(b1-4)GlcNAc(b1-2)Man(a1-6)]Man(b1-4)GlcNAc(b1-4)GlcNAc
# Outline: as §1
# [4] = biological target: Gal(b1-4)GlcNAc(b1-2)[Gal(b1-4)GlcNAc(b1-4)]Man(a1-3)[GlcNAc(b1-4)][Gal(b1-4)GlcNAc(b1-2)[Gal(b1-4)GlcNAc(b1-6)]Man(a1-6)]Man(b1-4)GlcNAc(b1-4)GlcNAc
# Outline: as §1
# [5] = biological target: Gal(b1-4)GlcNAc(b1-2)[Gal(b1-4)GlcNAc(b1-6)]Man(a1-6)[Gal(b1-4)GlcNAc(b1-2)Man(a1-3)]Man(b1-4)GlcNAc(b1-4)GlcNAc
# Outline: as §1
# [6] = biological target: Gal(b1-4)GlcNAc(b1-2)[Gal(b1-4)GlcNAc(b1-6)]Man(a1-6)[Gal(b1-4)GlcNAc(b1-2)Man(a1-3)]Man(b1-4)GlcNAc(b1-4)[Fuc(a1-6)]GlcNAc
# Outline: as §1
# [7] = biological target: Gal(b1-4)GlcNAc(b1-2)[Gal(b1-4)GlcNAc(b1-6)]Man(a1-6)[GlcNAc(b1-4)][Gal(b1-4)GlcNAc(b1-2)Man(a1-3)]Man(b1-4)GlcNAc(b1-4)GlcNAc
# Outline: as §1
# [8] = biological target: Gal(b1-4)GlcNAc(b1-2)[Gal(b1-4)GlcNAc(b1-6)]Man(a1-6)[GlcNAc(b1-4)][Gal(b1-4)GlcNAc(b1-2)[Gal(b1-4)GlcNAc(b1-4)]Man(a1-3)]Man(b1-4)GlcNAc(b1-4)[Fuc(a1-6)]GlcNAc
# Outline: as §1
# [9] = biological target: Gal(b1-4)GlcNAc(b1-3)Gal(b1-3)GalNAc
# Outline: as §1
# [10] = biological target: Gal(b1-4)GlcNAc(b1-3)Gal(b1-3)GlcNAc
# Outline: as §1
# [11] = biological target: Gal(b1-4)GlcNAc(b1-3)Gal(b1-4)Glc
# Outline: as §1
# [12] = biological target: Gal(b1-4)GlcNAc(b1-3)Gal(b1-4)GlcNAc
# Outline: as §1
# [13] = biological target: Gal(b1-4)GlcNAc(b1-3)Gal(b1-4)GlcNAc(b1-2)Man(a1-3)[Gal(b1-4)GlcNAc(b1-3)Gal(b1-4)GlcNAc(b1-2)Man(a1-6)]Man(b1-4)GlcNAc(b1-4)GlcNAc
# Outline: as §1
# [14] = biological target: Gal(b1-4)GlcNAc(b1-3)Gal(b1-4)GlcNAc(b1-2)Man(a1-3)[Gal(b1-4)GlcNAc(b1-3)Gal(b1-4)GlcNAc(b1-2)Man(a1-6)]Man(b1-4)GlcNAc(b1-4)[Fuc(a1-6)]GlcNAc
# Outline: as §1
# [15] = biological target: Gal(b1-4)GlcNAc(b1-3)Gal(b1-4)GlcNAc(b1-2)[Gal(b1-4)GlcNAc(b1-3)Gal(b1-4)GlcNAc(b1-6)]Man(a1-6)[Gal(b1-4)GlcNAc(b1-3)Gal(b1-4)GlcNAc(b1-2)Man(a1-3)]Man(b1-4)GlcNAc(b1-4)GlcNAc
# Outline: as §1
# [16] = biological target: Gal(b1-4)GlcNAc(b1-3)Gal(b1-4)GlcNAc(b1-2)[Gal(b1-4)GlcNAc(b1-3)Gal(b1-4)GlcNAc(b1-6)]Man(a1-6)[Gal(b1-4)GlcNAc(b1-3)Gal(b1-4)GlcNAc(b1-2)Man(a1-3)]Man(b1-4)GlcNAc(b1-4)[Fuc(a1-6)]GlcNAc
# Outline: as §1
# [17] = biological target: Gal(b1-4)GlcNAc(b1-3)Gal(b1-4)GlcNAc(b1-3)Gal(b1-4)GlcNAc
# Outline: as §1
# [18] = biological target: Gal(b1-4)GlcNAc(b1-3)Gal(b1-4)GlcNAc(b1-3)Gal(b1-4)GlcNAc(b1-2)Man(a1-3)[Gal(b1-4)GlcNAc(b1-3)Gal(b1-4)GlcNAc(b1-3)Gal(b1-4)GlcNAc(b1-2)Man(a1-6)]Man(b1-4)GlcNAc(b1-4)GlcNAc
# Outline: as §1
# [19] = biological target: Gal(b1-4)GlcNAc(b1-3)Gal(b1-4)GlcNAc(b1-3)Gal(b1-4)GlcNAc(b1-2)Man(a1-3)[Gal(b1-4)GlcNAc(b1-3)Gal(b1-4)GlcNAc(b1-3)Gal(b1-4)GlcNAc(b1-2)Man(a1-6)]Man(b1-4)GlcNAc(b1-4)[Fuc(a1-6)]GlcNAc
# Outline: as §1
# [20] = biological target: Gal(b1-4)GlcNAc(b1-3)Gal(b1-4)GlcNAc(b1-3)Gal(b1-4)GlcNAc(b1-2)[Gal(b1-4)GlcNAc(b1-3)Gal(b1-4)GlcNAc(b1-3)Gal(b1-4)GlcNAc(b1-6)]Man(a1-6)[Gal(b1-4)GlcNAc(b1-3)Gal(b1-4)GlcNAc(b1-3)Gal(b1-4)GlcNAc(b1-2)Man(a1-3)]Man(b1-4)GlcNAc(b1-4)[Fuc(a1-6)]GlcNAc
# Outline: as §1
# [21] = biological target: Gal(b1-4)GlcNAc(b1-3)Gal(b1-4)GlcNAc(b1-3)Gal(b1-4)GlcNAc(b1-3)Gal(b1-4)GlcNAc(b1-2)Man(a1-3)[Gal(b1-4)GlcNAc(b1-3)Gal(b1-4)GlcNAc(b1-3)Gal(b1-4)GlcNAc(b1-3)Gal(b1-4)GlcNAc(b1-2)Man(a1-6)]Man(b1-4)GlcNAc(b1-4)GlcNAc
# Outline: as §1
# [22] = biological target: Gal(b1-4)GlcNAc(b1-3)Gal(b1-4)GlcNAc(b1-3)Gal(b1-4)GlcNAc(b1-3)Gal(b1-4)GlcNAc(b1-2)Man(a1-3)[Gal(b1-4)GlcNAc(b1-3)Gal(b1-4)GlcNAc(b1-3)Gal(b1-4)GlcNAc(b1-3)Gal(b1-4)GlcNAc(b1-2)Man(a1-6)]Man(b1-4)GlcNAc(b1-4)[Fuc(a1-6)]GlcNAc
# Outline: as §1
# [23] = biological target: Gal(b1-4)GlcNAc(b1-3)Gal(b1-4)GlcNAc(b1-3)Gal(b1-4)GlcNAc(b1-3)Gal(b1-4)GlcNAc(b1-2)[Gal(b1-4)GlcNAc(b1-3)Gal(b1-4)GlcNAc(b1-3)Gal(b1-4)GlcNAc(b1-3)Gal(b1-4)GlcNAc(b1-6)]Man(a1-6)[Gal(b1-4)GlcNAc(b1-3)Gal(b1-4)GlcNAc(b1-3)Gal(b1-4)GlcNAc(b1-3)Gal(b1-4)GlcNAc(b1-2)Man(a1-3)]Man(b1-4)GlcNAc(b1-4)[Fuc(a1-6)]GlcNAc
# Outline: as §1
# [24] = biological target: Gal(b1-4)GlcNAc(b1-3)Gal(b1-4)GlcNAc(b1-3)Gal(b1-4)GlcNAc(b1-3)Gal(b1-4)GlcNAc(b1-3)Gal(b1-4)GlcNAc(b1-2)Man(a1-3)[Gal(b1-4)GlcNAc(b1-3)Gal(b1-4)GlcNAc(b1-3)Gal(b1-4)GlcNAc(b1-3)Gal(b1-4)GlcNAc(b1-3)Gal(b1-4)GlcNAc(b1-2)Man(a1-6)]Man(b1-4)GlcNAc(b1-4)GlcNAc
# Outline: as §1
# [25] = biological target: Gal(b1-4)GlcNAc(b1-3)Gal(b1-4)GlcNAc(b1-3)Gal(b1-4)GlcNAc(b1-3)Gal(b1-4)GlcNAc(b1-3)Gal(b1-4)GlcNAc(b1-2)Man(a1-3)[Gal(b1-4)GlcNAc(b1-3)Gal(b1-4)GlcNAc(b1-3)Gal(b1-4)GlcNAc(b1-3)Gal(b1-4)GlcNAc(b1-3)Gal(b1-4)GlcNAc(b1-2)Man(a1-6)]Man(b1-4)GlcNAc(b1-4)[Fuc(a1-6)]GlcNAc
# Outline: as §1
# [26] = biological target: Gal(b1-4)GlcNAc(b1-3)Gal(b1-4)GlcNAc(b1-3)Gal(b1-4)GlcNAc(b1-3)Gal(b1-4)GlcNAc(b1-3)Gal(b1-4)GlcNAc(b1-2)[Gal(b1-4)GlcNAc(b1-3)Gal(b1-4)GlcNAc(b1-3)Gal(b1-4)GlcNAc(b1-3)Gal(b1-4)GlcNAc(b1-3)Gal(b1-4)GlcNAc(b1-6)]Man(a1-6)[Gal(b1-4)GlcNAc(b1-3)Gal(b1-4)GlcNAc(b1-3)Gal(b1-4)GlcNAc(b1-3)Gal(b1-4)GlcNAc(b1-3)Gal(b1-4)GlcNAc(b1-2)Man(a1-3)]Man(b1-4)GlcNAc(b1-4)[Fuc(a1-6)]GlcNAc
# Outline: as §1
# [27] = biological target: Gal(b1-4)GlcNAc(b1-3)Gal(b1-4)GlcNAc(b1-3)Gal(b1-4)GlcNAc(b1-3)Gal(b1-4)GlcNAc(b1-3)Gal(b1-4)GlcNAc(b1-3)Gal(b1-4)GlcNAc(b1-2)Man(a1-3)[Gal(b1-4)GlcNAc(b1-3)Gal(b1-4)GlcNAc(b1-3)Gal(b1-4)GlcNAc(b1-3)Gal(b1-4)GlcNAc(b1-3)Gal(b1-4)GlcNAc(b1-3)Gal(b1-4)GlcNAc(b1-2)Man(a1-6)]Man(b1-4)GlcNAc(b1-4)GlcNAc
# Outline: as §1
# [28] = biological target: Gal(b1-4)GlcNAc(b1-3)Gal(b1-4)GlcNAc(b1-3)GalNAc
# Outline: as §1
# [29] = biological target: Gal(b1-4)GlcNAc(b1-3)Gal(b1-4)GlcNAc(b1-3)[Gal(b1-4)GlcNAc(b1-3)Gal(b1-4)GlcNAc(b1-6)]GalNAc
# Outline: as §1
# [30] = biological target: Gal(b1-4)GlcNAc(b1-3)Gal(b1-4)GlcNAc(b1-6)[Gal(b1-3)]GalNAc
# Outline: as §1
# [31] = biological target: Gal(b1-4)GlcNAc(b1-3)Gal(b1-4)[Fuc(a1-3)]GlcNAc(b1-3)Gal(b1-4)[Fuc(a1-3)]GlcNAc
# Outline: as §1
# [32] = biological target: Gal(b1-4)GlcNAc(b1-3)GalNAc
# Outline: as §1
# [33] = biological target: Gal(b1-4)GlcNAc(b1-3)[Fuc(a1-3)GlcNAc(b1-6)]Gal(b1-4)Glc
# Outline: as §1
# [34] = biological target: Gal(b1-4)GlcNAc(b1-3)[Gal(b1-4)GlcNAc(b1-6)]Gal(b1-4)GlcNAc
# Outline: as §1
# [35] = biological target: Gal(b1-4)GlcNAc(b1-3)[GlcNAc(b1-6)]Gal(b1-4)GlcNAc
# Outline: as §1
# [36] = biological target: Gal(b1-4)GlcNAc(b1-6)Gal(b1-4)GlcNAc
# Outline: as §1
# [37] = biological target: Gal(b1-4)GlcNAc(b1-6)GalNAc
# Outline: as §1
binder,measurement,setting,value
B1,glycan array binding signal (z-score),[1],-0.152
same,glycan array binding signal (z-score),[2],0.301
same,glycan array binding signal (z-score),[3],0.016
same,glycan array binding signal (z-score),[4],-0.318
same,glycan array binding signal (z-score),[5],-0.359
same,glycan array binding signal (z-score),[6],-0.47
same,glycan array binding signal (z-score),[7],-0.586
same,glycan array binding signal (z-score),[8],-0.189
same,glycan array binding signal (z-score),[9],-0.467
same,glycan array binding signal (z-score),[10],-0.083
same,glycan array binding signal (z-score),[11],-0.12
same,glycan array binding signal (z-score),[12],-0.278
same,glycan array binding signal (z-score),[13],4.74
same,glycan array binding signal (z-score),[14],3.63
same,glycan array binding signal (z-score),[15],-0.059
same,glycan array binding signal (z-score),[16],0.493
same,glycan array binding signal (z-score),[17],0.04
same,glycan array binding signal (z-score),[18],5.84
same,glycan array binding signal (z-score),[19],0.163
same,glycan array binding signal (z-score),[20],0.14
same,glycan array binding signal (z-score),[21],0.284
same,glycan array binding signal (z-score),[22],0.3
same,glycan array binding signal (z-score),[23],0.004
same,glycan array binding signal (z-score),[24],0.541
same,glycan array binding signal (z-score),[25],0.108
same,glycan array binding signal (z-score),[26],0.076
same,glycan array binding signal (z-score),[27],-0.071
same,glycan array binding signal (z-score),[28],2.41
same,glycan array binding signal (z-score),[29],5.24
same,glycan array binding signal (z-score),[30],3.84
same,glycan array binding signal (z-score),[31],-0.003
same,glycan array binding signal (z-score),[32],-0.125
same,glycan array binding signal (z-score),[33],0.71
same,glycan array binding signal (z-score),[34],-0.303
same,glycan array binding signal (z-score),[35],-0.065
same,glycan array binding signal (z-score),[36],-0.236
same,glycan array binding signal (z-score),[37],-0.462
